T1: UNK ZnF1-3 (human, UniProt Q9C0B0 31-174)
T1 sequence: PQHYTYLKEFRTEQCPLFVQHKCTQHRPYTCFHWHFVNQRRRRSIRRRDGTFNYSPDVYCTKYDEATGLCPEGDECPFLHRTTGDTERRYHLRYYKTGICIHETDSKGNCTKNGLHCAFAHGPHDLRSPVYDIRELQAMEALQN

B1: chr4:129192164:129192165:+_ENSMUSG00000047945_ENSMUST00000062356|mus_hu|FALSE|FALSE (ssRNA)
RNA: GGGAGUUCUACAGUCCGACGAUCAGAAUCACCCCCACCCUCCUUCCGAUUUCUCUUGAAGGACAGGCCGCUCAAUUUGAAAGGCUUCUUGAAAGAGAAUUUCUUCUUCUUCUUGGGGGUCUCCUUGGGGGGGACCUCCCCCUUCAACAGAGGAUUGAGCAUCA
B2: chr19:8913615:8913616:-_ENSMUSG00000071658_ENSMUST00000096259|mus_hu|mus_mus_mus_hu_False|38_88 (ssRNA)
RNA: GGGAGUUCUACAGUCCGACGAUCAGGGUACCAAAACCUUCUGCCUGAGAUAGGUGCCCCACCCAGUAGGGAGUUGCAGCUGAAAGUAUCUGAUGCACUGACAGUUACUAUACGAAAGGAGGCCCCUGGGGAGGGCCAGGCCAGCAACAGAGGAUUGAGCAUCA
B3: chr1:130485734:130485735:-_ENSMUSG00000045382_ENSMUST00000052172|mus_mus|mus_mus_mus_hu_False|68_78 (ssRNA)
RNA: GGGAGUUCUACAGUCCGACGAUCGAUGAAGGAGUCGAUGCUGAUCCCAAUGUAGUAUGGCAGCCAGCAGGCAAAGAAAGCCAGGAUGAGGAUGACUGUGGUCUUGAGGGCCUUGCGCUUCUGGUGGCCCUUGGAGUGUGACAGCAACAGAGGAUUGAGCAUCA
B4: chr7:7679991:7679992:-_ENSG00000106399_ENST00000396682|hu_hu|hu_hu_hu_mus_False|78_78 (ssRNA)
RNA: GGGAGUUCUACAGUCCGACGAUCUGGGAUGAAUCUUUUCCAGCUUCCCCACGAAGCAGACAGGCUUGUCGAUAUACUGUGGUAACAUGCUGGCGUUGACGCGCGCUUUGGGGAGCUGCAUUAUGUCCUCCAUGAUUCUGCCGCCAACAGAGGAUUGAGCAUCA
B5: chr2:62099399:62099400:-_ENSG00000115484_ENST00000544079|hu_mus|FALSE|FALSE (ssRNA)
RNA: GGGAGUUCUACAGUCCGACGAUCGUAGGACUCCAUACCACUCAGUGUUCGGGAGUACUCUGUCAGUCUGAGGGCCAGCUCUAUUUCUGGAGCACCACCUCCUGCAAUAAGAGCUCUUUUCUUUACUAAGCAUCGGAUGACACACAACAGAGGAUUGAGCAUCA
B6: chr1:52991732:52991733:-_ENSG00000134744_ENST00000257177|hu_mus|FALSE|FALSE (ssRNA)
RNA: GGGAGUUCUACAGUCCGACGAUCUUUAGGGCCUGGAACACUGGCAGCGUUUACUUUACAUGAUUUAGCUUCUGUUUUUUCUAUACAAAUAUCAUUUUGCUUGGUUUUUUUACUACUAUUUCUAUUCAGAGAGCUGGUCCCAAUCAACAGAGGAUUGAGCAUCA
B7: 65399146_65399266_674_3pUTR_ENSG00000258289_ENST00000359118|human|control|control (ssRNA)
RNA: GGGAGUUCUACAGUCCGACGAUCGAGUCCUGGUUCCUUUUAUUGGAAACCAAAAUCUGGGCACCAGGUGUGCUCCCAUUCUAGUUGUUUUCUGACCACAUAACUGCUAACAAAGAUGCUUCACUCUGGCUACACUGAUGUGAACAACAGAGGAUUGAGCAUCA
B8: chr7:138189096:138189097:+_ENSG00000122779_ENST00000415680|hu_hu|FALSE|FALSE (ssRNA)
RNA: GGGAGUUCUACAGUCCGACGAUCUGACUUUUCUACUGUACUGCUGGGAACCUCAGUAGUGUCCUUCACAAAAAAGUUAUCUAUGAUGUGUCUCUCUGCACAUUCUUGGCUGCAAACUGGGCAACGAAUGACUCCAACUUGGGUCAACAGAGGAUUGAGCAUCA
B9: chr17:13113627:13113628:+_ENSMUSG00000068039_ENSMUST00000151287|mus_mus|motif|central (ssRNA)
RNA: GGGAGUUCUACAGUCCGACGAUCAAGCUUCAUUUUUGUUUUCUGCAGGCUGAAGUCAAGACAAGCAAUUUUUGCAUUAACGGUUCUCUUGGGCAUGCCCUGAGAUCCAACCACACAAUUGAGCGCAUAGCCAUUGAUCAGCAUCAACAGAGGAUUGAGCAUCA
B10: 63119758_63128743_190_CDS_ENSG00000116641_ENST00000251157|human|control|control (ssRNA)
RNA: GGGAGUUCUACAGUCCGACGAUCAUCCACAGCCAAAGGAUGAGUAAUGAGGUAAUCUUCCAAAUCCACUGGAUCUACUGCUUCGGUAAGGGGCACUGUGGUGUGAUGGGAUAUAUUGCCAACAAUAUUAAGGUUUUUGAGCAGCAACAGAGGAUUGAGCAUCA
B11: chr10:33214929:33214930:-_ENSG00000150093_ENST00000302278|hu_hu|hu_hu_hu_mus_True|8_78 (ssRNA)
RNA: GGGAGUUCUACAGUCCGACGAUCAACAAGUUCAUUGAAAAACUCUCCUCUGUCAGUAAGACUGAGCACAUUUUUGUAGCUAAAUGGGCUGGUGCAGUUUUGUUCACUUGUACAAGGAUUUCUUAGCUUAGCUGGUGUUGUGCUCAACAGAGGAUUGAGCAUCA
B12: chr1:204511919:204511920:+_ENSG00000198625_ENST00000367182|hu_hu|FALSE|FALSE (ssRNA)
RNA: GGGAGUUCUACAGUCCGACGAUCGCCAGCUACAUCCCACUCCUCAAAUCCAAGGUCCAGCCUAGAUGUUUCAUCUUGGGCUAAAUUUUCAAUUAAGUCUUCAUCUUCUCUAGAAUGUAUGCAUUUAUGCUCUGAGGUAGGCAGCAACAGAGGAUUGAGCAUCA
B13: chr2:131139019:131139020:-_ENSMUSG00000048911_ENSMUST00000059372|mus_hu|FALSE|FALSE (ssRNA)
RNA: GGGAGUUCUACAGUCCGACGAUCAAUAUAUAUGUUGAGAGGCAGAUUCUGGAAUCCAAUAUUAGGCAUCCUGAAGUUGUAAUGUGGGAAAUCCGAGCUCAUGGAUGAACUUCCCUCCGUGAUCUCCAGGUGACAGCCCCGCUCCAACAGAGGAUUGAGCAUCA
B14: chr9:14812383:14812384:-_ENSMUSG00000031934_ENSMUST00000164273|mus_mus|mus_mus_mus_hu_True|1_38 (ssRNA)
RNA: GGGAGUUCUACAGUCCGACGAUCAUAGCCCAGGUAGAUACACGCUAACAGUAUAAUGAUGAGUGUCAGCAGGCGGCAGCUAAUGUACUUGAUGAUUAAAUGACUAGAAUUUUUCUUUGUCUUCAAGUACUGCUCCACGAUUGGCAACAGAGGAUUGAGCAUCA

The other results are listed elsewhere or left out.

This experiment has as its target T1, UNK ZnF1-3. The experiment can be described thus: nsRBNS (natural sequence RNA bind-n-seq); RBNS binding buffer (assumed for nsRBNS): 25 mM Tris pH 7.5, 150 mM KCl, 3 mM MgCl2, 0.01% Triton X-100, 500 ug/ml BSA, 20 U/ml SUPERase-In, 4 C; UNK is unkempt and MSI1 is Musashi-1; names of the RNAs are library labels; protein concentration not given here; high values mean tight binding.
As to B1, the binding signal stood at 1.38 enrichment R.

The molecule B2 returned a binding signal of 1.17 enrichment R.

B3 returned a binding signal of 1.41 enrichment R.

Turning to B4, the binding signal amounted to 0.684 enrichment R.

Turning to B5, the binding signal amounted to 0.997 enrichment R.

Regarding B6, the binding signal is 0.722 enrichment R.

The molecule B7 returned a binding signal of 0.74 enrichment R.

The molecule B8 gave a binding signal of 0.798 enrichment R.

For the molecule B9, the binding signal was determined as 0.7 enrichment R.

The molecule B10 gave a binding signal of 2.51 enrichment R.

B11 had a binding signal of 1.26 enrichment R.

The molecule B12 displayed a binding signal of 1.02 enrichment R.

Molecule B13 had a binding signal of 0.938 enrichment R.

The molecule B14 returned a binding signal of 0.997 enrichment R.

(Values after paper PMC12136788.)
